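Dose response: 5 concentrations. Exposure: 48 h. Format: 96-well plates. Endpoint: linear interpolation; highest concentration if not reached. Here, GI50 denotes the concentration required for 50% inhibition of growth.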 Activity calls are given as the source filed them. Cut-off read from the data, not from the text of the source: active = GI50 up to about 1.1 µM and inactive = higher.
tested on: NCI-H322M; experiment: NCI tumour cell line growth inhibition, 48 h

Structure (SMILES)	GI50
Cn1c2ccccc2n2c3ccccc3c3nnc(N)c-3c12	inactive: 23.5 µM
CCCCCC1CC=CC(=O)O1 (stereo not drawn)	inactive: 2.42 µM
COc1cc2c(cc1O)CCN[C@@]21CS[C@H]2c3c(OC(C)=O)c(C)c4c(c3C(COC1=O)N1C2C2NC(Cc3cc(C)c(OC)c(O)c32)[C@@H]1C#N)OCO4 (stereo partly drawn)	active: < 0.01 µM
CC(C)c1ccc(/C=C/c2cc(C(=O)NNC(=O)NC3CCCCC3)nc(S)n2)cc1	inactive: > 100 µM
Cc1ccc(NC(=O)C2C(=O)N(c3ccc(C)c(C)c3)C(=O)C2N=N)cc1C (stereo not drawn)	inactive: > 100 µM
C=CCCCCCCC#CCCCCCCCCCC[C@@H]1C(=O)O[C@H](C)[C@@H]1O.CCCCCCCCC#CCCCCCCCCCC[C@@H]1C(=O)O[C@H](C)[C@@H]1O	inactive: 40.7 µM
CCOC(=O)/C=C/[C@@H](CC)O[Si](C(C)C)(C(C)C)C(C)C	inactive: > 100 µM
O=C(N1CCOCC1)C1(c2ccccc2)CCNCC1	inactive: > 100 µM
Clc1cccc(N2CCN(CCCN3CCc4c([nH]c5ccccc45)C3c3cccnc3)CC2)c1 (stereo not drawn)	inactive: > 10 µM
COC(=O)NN1C(C)=C(C(=O)OC)C2(CCOC2=O)C1(C)O (stereo not drawn)	inactive: > 100 µM
COc1ccc(/N=c2/oc3ccccc3cc2C(N)=O)cc1	inactive: > 100 µM
c1ccc(-c2nnn(CCN3CCCCC3)n2)cc1	inactive: > 100 µM
NCCOCCOCC(=O)O	inactive: > 100 µM
O=C1C(c2ccccc2)=[N+]([O-])c2ccc(Cl)cc21	inactive: > 100 µM
CC1(c2ccc(Cl)cc2)c2ccccc2C(=O)N1CCCN1C(=O)c2ccccc2C1=O (stereo not drawn)	inactive: 34.8 µM
COc1ccc2nc3ccccc3c(NCCCCCCN(C)CCCl)c2c1	active: 0.52 µM
Cc1cc(S(=O)(=O)[N-]/C(=N/S(=O)(=O)c2cc(Cl)sc2Cl)[n+]2ccc(N(C)C)cc2)c(S)cc1Cl	inactive: 45 µM
Nc1cc(-c2ccc(Cl)cc2)nn1-c1nc2ccccc2nc1-c1ccccc1	inactive: 56.1 µM
COC(=O)[C@H](Cc1c[nH]c2ccccc12)NC(=O)c1ccccc1I	inactive: 16.4 µM
CCN(CC)C(=S)SS(=O)(=O)c1ccc([N+](=O)[O-])cc1	inactive: > 100 µM
CC(=O)Oc1c(Br)ccc2cc(C(Br)Br)c(C(=O)c3ccccc3)nc12	inactive: 18.5 µM
COC1(OC)C(/C(N)=C\O)=NC(C)(C)N1O	inactive: > 100 µM

Structure (SMILES)	GI50
COC(=O)[C@@H]1Cc2c([nH]c3ccccc23)[C@H](c2ccccc2)N1	inactive: 43.6 µM
Cc1ccc(NCC(=O)N2CC(=O)Nc3ccccc32)c(C)c1	inactive: > 100 µM
O=c1c(C(c2ccc3c(c2)Cc2ccccc2-3)c2c(O)oc3ccccc3c2=O)c(O)oc2ccccc12	inactive: 39 µM
Cc1ccc(C(=O)NC2C(=O)NC(C(C)C)C(=O)N3CCCC3C(=O)N(C)CC(=O)N(C)C(C(C)C)C(=O)OC2C)c2c1Oc1c(c(C(=O)NC3C(=O)NC(C(C)C)C(=O)N4CCCC4C(=O)N(C)CC(=O)N(C)C(C(C)C)C(=O)OC3C)c3nc(-c4ccccc4)c(=O)oc3c1C)N2 (stereo not drawn)	active: 0.00128 µM
Cc1cc2c(=O)cc(-c3ccc(Cl)cc3Cl)oc2c(C(=O)O)c1C	inactive: > 100 µM
COc1cc(C(=O)N(C(=O)N2CCCCC2)c2ccccc2)cc(OC)c1OC	inactive: > 100 µM
Nc1nc(N)c(-c2ccccc2)c(C(=O)Nc2ccc(Cl)c(Cl)c2)n1	inactive: > 100 µM
CC(=O)C(CN1C(=O)c2ccccc2C1=O)C(C)=O	inactive: > 100 µM
COc1ccc(C2=NN(C(=O)c3ccc(Cl)cc3)C(O)(c3cc(F)c(Cl)cc3Cl)C2)cc1OC (stereo not drawn)	inactive: 32.6 µM
C[C@@H]1OCC(O)C([C@H]2OC(c3ccccc3)=N[C@H]2CO)O1 (stereo partly drawn)	inactive: > 100 µM
C/C(=C\c1ccc2c(c1)OCO2)[N+](=O)[O-]	inactive: 13.8 µM
COc1ccc2c(c1)C(=O)[C@@](Nc1ccc(C=O)cc1)(OC)[C@@](OC)(c1ccc([N+](=O)[O-])cc1)O2	inactive: > 10 µM
CN1CCc2c(sc3ncn(N)c(=N)c23)C1	inactive: > 100 µM
CS(=O)(=O)OCC1OC(n2ccc(NC(=O)c3ccccc3)nc2=O)CC1OS(C)(=O)=O (stereo not drawn)	inactive: > 100 µM
CCCCCCCCCCNC(=S)OC	inactive: > 100 µM
CC1(C)CCCC(C)(C2CCC3(C)C2C(O)CC2C4(C)CCC(O)C(C)(C)C4CCC23C)O1 (stereo not drawn)	inactive: > 100 µM
OCc1cc2c(ccc3sc4ccc5sc6ccc7ncccc7c6c5c4c32)s1	inactive: 5.71 µM
Nc1nnc(-c2ccco2)c(-c2ccco2)n1	inactive: > 100 µM
CN(C)CCN(c1ccccn1)c1ccccn1	inactive: > 100 µM
CCc1cccc(=O)c([O-])c1.CCc1cccc(=O)c([O-])c1.[Bi+3].[Cl-]	inactive: 5.56 µM
O=[N+]([O-])c1ccc(Cl)cc1/C=N/C12CC3CC(CC(C3)C1)C2	inactive: 67.5 µM
N#Cc1ccc(C2OCC3CC=CCC3CO2)cc1 (stereo not drawn)	inactive: > 100 µM

Structure (SMILES)	GI50
COc1ccc(/C=C/C(=O)C(C)(C)Br)cc1	inactive: 22.1 µM
COC(=O)C1CCC(=O)N1C(c1ccc2c(c1)OCO2)c1cc(OC)c(OC)c(OC)c1 (stereo not drawn)	inactive: > 100 µM
COc1ccc(C(=O)C(c2ccc(OC)cc2)C2C(=O)Oc3ccccc32)cc1 (stereo not drawn)	inactive: > 10 µM
O=C(NCc1ccccc1)c1nn[nH]c1O	inactive: > 100 µM
Nc1ccn(C2CCC(CO)O2)c(=O)n1 (stereo not drawn)	inactive: > 100 µM
Cc1ccc2c3c1[C@@H]1O[C@@H]1c1cccc(c1-3)[C@@H]1O[C@H]21	inactive: 15.4 µM
O=C1C(/C=C/c2ccc(Cl)cc2)=NNC2N1N=C1NC(=O)C3(NN12)c1ccccc1-c1ccccc13 (stereo not drawn)	inactive: > 100 µM
FC(F)(F)c1ccc2c(-c3cc[nH]c3)ccnc2c1	inactive: 18.7 µM
CC(C)=CCN1CC(C)C(=O)Nc2ccccc21 (stereo not drawn)	inactive: > 100 µM
CN(C)C(=S)/N=c1\ss/c(=N\S(=O)(=O)c2ccccc2)n1C	inactive: > 100 µM
Brc1cccc(Nc2ncnc3sc4c(c23)CCC(Nc2cccc(Br)c2)C4)c1 (stereo not drawn)	inactive: > 100 µM
c1ccc2nn(C3CCCO3)nc2c1 (stereo not drawn)	inactive: > 100 µM
CCCCc1ccc(Nc2nc3c(ncn3C3OC(COC(C)=O)C(OC(C)=O)C3OC(C)=O)c(=O)[nH]2)cc1 (stereo not drawn)	inactive: 19.9 µM
COc1cc(/C=C2/C(=O)N(C(=O)OC(C)C)C(Cc3cc(OC)c(OC)c(C)c3OC)C(=O)N2Cc2ccccc2)c(OC)c(C)c1OC (stereo not drawn)	inactive: 38.4 µM
C=C(C)C1CC[C@]2(C(=O)O)CCC3(C)[C@H](CCC4[C@@]5(C)CC[C@H](OC6OC(CO)C(O)C6OC6OC(C)C(O)C(O)C6O)[C@@](C)(CO)C5CC[C@]43C)C12 (stereo partly drawn)	inactive: > 100 µM
CC[C@@]1(O)C[C@H](OC2CC(N(C)C)C(O)C(C)O2)c2c(cc3c(c2O)C(=O)c2c(O)ccc(O)c2C3=O)[C@H]1C(=O)OC (stereo partly drawn)	active: 0.0424 µM
CCCC[C@H]1[C@@H](OCOc2ccccc2)COC(=O)N1[C@H](C)c1ccccc1	inactive: 24.3 µM
N#Cc1c(-c2ccc(Cl)cc2)c(C#N)c(=O)n(NS(=O)(=O)c2ccccc2)c1O	inactive: 34.8 µM
O=C1c2ccccc2C(=O)N1CCCOCc1cnc(O)nc1O	inactive: > 100 µM
CCOC(=O)C12CCCC1(O)N(NC(=O)c1cccc(Cl)c1)C(C)=C2C(=O)OC (stereo not drawn)	inactive: > 100 µM
COc1cc2nc(-c3cccs3)nc(Cl)c2cc1OC	inactive: > 100 µM
O=[N+]([O-])c1cc(F)ccc1Sc1ccccc1	inactive: > 10 µM

Structure (SMILES)	GI50
O=C1/C(=C2/CCCN2)C(c2ccc[nH]2)=NN1c1ccccc1	inactive: > 100 µM
CC(C)(C)C1(O)Cc2ccccc2C(=O)O1 (stereo not drawn)	inactive: > 100 µM
COc1ccc(/C=C/C(=O)N[C@@H]2C(=O)N3[C@@H]2SC(C)(C)[C@@H]3C(=O)O)cc1OC	inactive: > 100 µM
O=C1c2ccccc2C(=O)N1n1c(Cc2ccc(Cl)cc2)n[nH]c1=O	inactive: > 100 µM
C#CC1(O)CCC2C3CCc4cc(Oc5nc(F)nc(-c6c7ccccc7c7n6CCS7)n5)ccc4C3CC[C@@]21C (stereo partly drawn)	inactive: 32 µM
O=C1C=CC(=O)C12CCc1ccccc12	inactive: > 100 µM
COc1cc(OC)c(/C=C\c2ccnc3ccccc23)c(OC)c1	inactive: 2.49 µM
COc1ccc2c(c1)[n+]([O-])c(C(C)=O)c(C)[n+]2[O-]	inactive: > 100 µM
C/N=C/N(C)c1c2ccccc2nc2ccccc12	inactive: > 100 µM
COP(=O)(OC)C(O)/C=C/c1ccco1 (stereo not drawn)	inactive: > 100 µM
COC(=O)c1c(C)cccc1C1CN=NC12Cc1c(C)cccc1C2=O (stereo not drawn)	inactive: > 100 µM
C/C(=N\NC(=[Se])N1CCN(c2ccccn2)CC1)c1ccccn1	active: 0.01 µM
O=C(NCCCCN(CCCNC(=O)C(F)(F)F)Cc1ccc2ccccc2c1)C(F)(F)F	inactive: 18.3 µM
SC1=Nc2ccccc2-c2nc(-c3cccc(Cl)c3)cc(-c3ccccc3)c2C1	active: 0.662 µM
C=C1C(=O)OC2C1C(OC(=O)/C(C)=C\C)CC1(CO1)C1C(O)C=C(C)C21O (stereo not drawn)	inactive: 24.7 µM
CC(C)c1cc2c(O)c(c1)Cc1cc(C(C)C)cc(c1O)Cc1cc(C(C)C)cc(c1O)Cc1cc(C(C)C)cc(c1O)Cc1cc(C(C)C)cc(c1O)Cc1cc(C(C)C)cc(c1O)C2	inactive: > 100 µM
CCCCN(C)C(=O)C1=C(C)NC(C)=C(C(=O)N(C)CCCC)C1	inactive: > 100 µM
COCO[C@@H]1C[C@H]2C(=O)Nc3ccccc3C(=O)N2C1	inactive: > 100 µM
Nc1nc(Cl)cc(OCC2(CO)CCCC2)n1	inactive: > 100 µM
COc1ccc(C(OCC2OC(n3ccc(Oc4c(F)c(F)c(F)c(F)c4F)nc3=O)CC2OP(OCCC#N)N(C(C)C)C(C)C)(c2ccccc2)c2ccc(OC)cc2)cc1 (stereo not drawn)	inactive: > 100 µM
COC(=O)C(Cc1ccccc1)NP(=O)(O)OCC1OC(n2cc(I)c(=O)[nH]c2=O)CC1O (stereo not drawn)	inactive: > 100 µM
COc1ccc(C(=O)NCCN(C)C)c2nc3ccccc3nc12	inactive: 3.78 µM

From ChEMBL document CHEMBL1201862, “PubChem BioAssay data set” (2004)
